Series [1] deals with the molecule itself. The series can be described thus: cryo-EM structure; turnover conditions (5 mM ATP, 25 mM ammonium chloride, 50 mM glutamate); decamer reconstruction (C1 for wild type, C5 for R298A).
Series [2] deals with the molecule itself. The series can be described thus: negative-stain electron microscopy; ~0.01 - 0.05 mg/mL in base buffer, 0.7% uranyl formate, 2D classification and averaging; oligomer seen in the 2D averages.

Consider two proteins from publication doi:10.1101/2025.07.04.663231, “Product-stabilized filamentation by human glutamine synthetase allosterically tunes metabolic activity” (bioRxiv, 2025).

B1: human glutamine synthetase R298A (enzyme)
chain: not shown
notes: human glutamine synthetase with R298A; Preparation of the mutant is not described; probably made scarless in E. coli like the wild type; also called loop variant R298A; copies: 10
What is called stoichiometry N is the number of molecules, sites or subunits per partner or assembly. Regarding B1, in series [1], the “stoichiometry N” value turned out to be 10.

B2: N-terminally His6-tagged human glutamine synthetase (enzyme)
chain: not shown
notes: human glutamine synthetase; expression vector ordered from ATUM; said to be the identical construct as in the X-ray structure of Krajewski et al. 2008; also called His6-tagged GS; 6xHIS-conjugated human glutamine synthetase; source: E. coli BL21(DE3), purified (HisTrap, Superose 6 SEC); not shown: His6, N-terminal, kept
On to B2, for which, in series [2], the “stoichiometry N” value stood at 10.
